{"source": "PubChem BioAssay AID1347428", "about": "(National Center for Advancing Translational Sciences (NCATS), 2020)", "note": "The campaign covered roughly 91,000 compounds. About 290 (0.32%) were called active. This list was built around the results that the source calls inconclusive (neither active nor inactive); the mix of calls is not that of the screen. Calls follow the shape of the dose curve; as a rule, active = well fitted inhibition curve with a large enough effect; inconclusive = small, poorly fitted or top-dose-only effect; inactive = no such curve, though single readings can be large or run the other way. Where the call is inconclusive, the potency comes from a doubtful curve fit. % is scaled to controls: 0 for no effect and ±100 for the full control effect; potency is read from the fitted curve at half-maximal effect; tags tell the direction and shape of the fitted curve.", "data": [{"target": "Single-stranded DNA cytosine deaminase (Homo sapiens) (UniProt Q9GZX7)", "sequence (Q9GZX7 whole entry, looked up)": "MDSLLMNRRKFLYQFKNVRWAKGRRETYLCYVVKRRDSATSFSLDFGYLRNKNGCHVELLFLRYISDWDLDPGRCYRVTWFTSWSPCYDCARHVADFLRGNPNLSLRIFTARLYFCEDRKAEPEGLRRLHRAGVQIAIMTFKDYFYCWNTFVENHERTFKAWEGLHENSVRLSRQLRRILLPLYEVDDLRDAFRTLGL", "assay": "Primary qHTS assay for inhibitors of Activation Induced Cytidine Deaminase (AID): AID signal; also: nearly all actives have a fitted effect of over 25% in size", "settings": "AID deamination FRET fluorescence, UDG-coupled, 4 h; activity change, negative = inhibition: at 115 µM (top of the series)", "values": [{"smiles": "CC1CCCN(C(=O)c2cc3c(Cl)nc4ccccc4c3s2)C1", "note": "(centres undefined)", "Potency": "inconclusive: 44.7 µM [inhibitor, partial curve, poor fit]"}, {"smiles": "Cc1noc(CSc2ccc(C(=O)N3CCc4ccccc43)cc2)n1", "activity change, negative = inhibition": "inactive: -9.94%"}, {"smiles": "CC(C)COc1ccc(C(=O)N(Cc2ccc(N(C)C)cc2)Cc2ccco2)cc1", "Potency": "inconclusive: 35.5 µM [inhibitor, full curve]"}, {"smiles": "Cc1cncn1CCc1nc2c3ccccc3nc(SCC(=O)Nc3cccc(Cl)c3)n2n1", "Potency": "inconclusive: 22.4 µM [inhibitor, partial curve, poor fit]"}, {"smiles": "Cc1cccc(C)c1-n1ncc(C(=O)N2CCN(c3ccccc3)CC2)c1C1CCN(C(=O)OC(C)(C)C)CC1", "Potency": "inconclusive: 79.4 µM [inhibitor, partial curve, poor fit]"}, {"smiles": "O=C(c1ccc(-n2cncn2)cc1)N1CCCC1c1nc2ccccc2[nH]1", "note": "(centres undefined)", "activity change, negative = inhibition": "inactive: -5.31%"}, {"smiles": "CN(CC(=O)Nc1cccc(C(F)(F)F)c1)S(=O)(=O)c1cccs1", "Potency": "inconclusive: 89.1 µM [inhibitor, single point]"}, {"smiles": "CCCC(=O)Nc1nnc2n1CCS2", "Potency": "inconclusive: 28.2 µM [inhibitor, single point]"}, {"smiles": "Cc1ccc(-c2noc(CSc3nnc(Cc4ccccc4)n3-c3cccc(C)c3)n2)cc1", "Potency": "inconclusive: 50.1 µM [inhibitor, partial curve, poor fit]"}, {"smiles": "O=C(O)c1ccc(/C=C/c2ccc3ccccc3n2)cc1", "activity change, negative = inhibition": "inactive: -7%"}, {"smiles": "CC(Cl)C(=O)NC1(C#N)CCCCC1", "note": "(centres undefined)", "activity change, negative = inhibition": "inactive: 3.23%"}, {"smiles": "COc1ccc(Nc2nc3ccccc3c3nnc(C)n23)cc1Cl", "Potency": "inconclusive: 56.2 µM [inhibitor, partial curve, poor fit]"}, {"smiles": "CCN(CC)C(=O)c1sc2c(c1C)c(=O)n(Cc1ccccc1)c(=O)n2Cc1ccc(Cl)cc1", "Potency": "inconclusive: 10 µM [inhibitor, full curve, poor fit]"}, {"smiles": "CCOC(=O)c1cnc(NCc2ccccc2OC)c2ccccc12", "Potency": "inconclusive: 7.94 µM [inhibitor, full curve, poor fit]"}, {"smiles": "CCn1c(=O)cc(SCC(=O)NCCc2ccc(Cl)cc2)c2ccccc21", "Potency": "inconclusive: 56.2 µM [inhibitor, partial curve, poor fit]"}, {"smiles": "CCn1cc(C(=O)NCc2ccccc2OC)c(=O)c2cc(S(=O)(=O)N3CCCCC3)ccc21", "Potency": "inconclusive: 20 µM [inhibitor, full curve, poor fit]"}, {"smiles": "Cc1c(-c2cccs2)nc2ccccc2c1-c1ccccc1", "activity change, negative = inhibition": "inactive: -7.33%"}, {"smiles": "COc1ccc(-c2ccc(=O)n(CC(=O)Nc3ccc(C)cc3C)n2)cc1", "Potency": "inconclusive: 35.5 µM [inhibitor, partial curve, poor fit]"}, {"smiles": "COc1ccc(OC)c(CCNc2ncnc3onc(-c4ccc(F)cc4)c23)c1", "Potency": "inconclusive: 17.8 µM [inhibitor, partial curve, poor fit]"}, {"smiles": "Fc1cc(Br)ccc1Nc1c2c(nc3nc(-c4cccs4)nn13)CCCC2", "Potency": "inconclusive: 28.2 µM [inhibitor, partial curve]"}, {"smiles": "CCC(C)(C)C1CCc2c(sc(NC(=O)C3CC3c3ccccc3)c2C#N)C1", "note": "(centres undefined)", "activity change, negative = inhibition": "inactive: -4.98%"}, {"smiles": "Cc1cccc(-c2nnn3c2nc(NCCc2ccc(S(N)(=O)=O)cc2)c2cc(Cl)ccc23)c1", "Potency": "inconclusive: 70.8 µM [inhibitor, single point]"}, {"smiles": "COc1ccc(-c2cc(C)nc3c(-c4ccc(OC)c(OC)c4)c(C)nn23)cc1", "Potency": "inconclusive: 50.1 µM [inhibitor, partial curve, poor fit]"}, {"smiles": "CCc1ccccc1N1C(=O)N(Cc2ccccc2C)c2ccccc2S1(=O)=O", "Potency": "inconclusive: 39.8 µM [inhibitor, single point]"}, {"smiles": "CC(=O)N1CCN(c2nc(CC(C)C)c3c(c2C#N)CCCC3)CC1", "Potency": "inconclusive: 56.2 µM [inhibitor, partial curve, poor fit]"}, {"smiles": "CCc1ccc(C2CC(=O)Nc3cc4c(cc32)OCO4)cc1", "note": "(centres undefined)", "Potency": "inconclusive: 7.94 µM [inhibitor, full curve, poor fit]"}, {"smiles": "Cc1cccc(N2CCN(C(=O)c3c(C)oc4ncnc(N5CCCCC5)c34)CC2)c1C", "Potency": "inconclusive: 89.1 µM [inhibitor, single point]"}, {"smiles": "CCN(c1ccccc1)c1ncnc2c1cnn2-c1ccc(C)cc1C", "Potency": "inconclusive: 50.1 µM [inhibitor, partial curve, poor fit]"}, {"smiles": "COC(=O)c1c(Oc2ccc(C(C)=O)cc2)nnc(-c2ccccc2)c1-c1ccccc1", "Potency": "inconclusive: 2.82 µM [inhibitor, full curve, poor fit]"}, {"smiles": "Cc1ccc(C)c(OCCn2cc(C(=O)c3ccco3)c3ccccc32)c1", "Potency": "inconclusive: 89.1 µM [inhibitor, partial curve, poor fit]"}, {"smiles": "CC(C)(C)C(=O)NCCc1nc2ccccc2n1CCCCOc1ccc(Cl)cc1", "Potency": "inconclusive: 56.2 µM [inhibitor, partial curve, poor fit]"}, {"smiles": "Cc1ccc(Cn2c(C(=O)O)c(CNC3CCCCCC3)c3ccc(C)cc32)cc1", "Potency": "inconclusive: 100 µM [inhibitor, single point]"}, {"smiles": "CCc1ccc2c(c1)NC(c1cccs1)=NC(c1ccc(F)cc1)=N2", "Potency": "inconclusive: 79.4 µM [inhibitor, partial curve, poor fit]"}, {"smiles": "CCCCC(=O)Nc1oc2c(C)cccc2c(=O)c1-c1ccccc1", "activity change, negative = inhibition": "inactive: -12.4%"}, {"smiles": "CCn1c(=O)n(CC)c2cc(N3CCCCC3)c(NC(=O)Nc3ccccc3Cl)cc21", "Potency": "inconclusive: 25.1 µM [inhibitor, full curve, poor fit]"}, {"smiles": "CCc1ccc(OCC(=O)N(Cc2ccc(Cl)cc2)C2CCS(=O)(=O)C2)cc1", "note": "(centres undefined)", "Potency": "inconclusive: 56.2 µM [inhibitor, partial curve, poor fit]"}, {"smiles": "COCC(=O)N1CCN(c2oc(-c3ccc(C)cc3)nc2S(=O)(=O)c2ccc(F)cc2)CC1", "activity change, negative = inhibition": "inactive: -2.7%"}, {"smiles": "CCOC(=O)c1cccc(Nc2c3c(nc4ccccc24)CCC3)c1", "Potency": "inconclusive: 35.5 µM [inhibitor, partial curve, poor fit]"}, {"smiles": "Cc1cccc(NC(=O)c2c(NC(=O)C(F)(F)F)sc3c2CCCCC3)c1", "Potency": "active: 79.4 µM"}, {"smiles": "COc1cc(OC)c(OC)cc1CNC(=O)Cc1cccc(C(F)(F)F)c1", "activity change, negative = inhibition": "inactive: -4.4%"}, {"smiles": "Cc1ccc(N2CC(c3nc4ccccc4n3CCC3CCCCC3)CC2=O)cc1", "note": "(centres undefined)", "activity change, negative = inhibition": "inactive: -25.8%"}, {"smiles": "CN(C)C(=O)COC(=O)CCc1c[nH]c2ccccc12", "activity change, negative = inhibition": "inactive: -2.08%"}, {"smiles": "Cc1cc(C)n(-c2nc3ccccc3nc2N2CCN(S(=O)(=O)c3ccc4ccccc4c3)CC2)n1", "activity change, negative = inhibition": "inactive: -25.8%"}, {"smiles": "O=C(NCCc1csc(-c2ccc(Cl)cc2)n1)c1cccs1", "Potency": "inconclusive: 56.2 µM [inhibitor, partial curve, poor fit]"}, {"smiles": "O=C(c1ccc2c(c1)CCN2S(=O)(=O)c1ccccc1)N1CCN(c2ccc(F)cc2)CC1", "Potency": "inconclusive: 15.8 µM [inhibitor, full curve, poor fit]"}, {"smiles": "ClCC(Cl)C[n+]1cccc2ccccc21", "note": "(centres undefined)", "activity change, negative = inhibition": "inactive: 1.03%"}, {"smiles": "O=C(Cn1c(=O)n(-c2cccc(Cl)c2)c(=O)c2sc3ccccc3c21)N1CCCC1", "Potency": "inconclusive: 14.1 µM [inhibitor, partial curve, poor fit]"}, {"smiles": "CC(NC(=O)CCNC(=O)C1CCCC1)c1ccccc1", "note": "(centres undefined)", "activity change, negative = inhibition": "inactive: -11.7%"}, {"smiles": "Cc1ccccc1OCCOC(=O)c1n[nH]c(=O)c2ccccc12", "activity change, negative = inhibition": "inactive: -11.7%"}, {"smiles": "O=C1CCCN1c1ccc(-c2csc(-c3ccsc3)n2)cc1", "activity change, negative = inhibition": "inactive: -10.5%"}, {"smiles": "CCCCN(CC)CCNC(=O)c1cc2c(=O)oc3ccc(C)cc3c2s1", "Potency": "inconclusive: 39.8 µM [inhibitor, full curve, poor fit]"}, {"smiles": "CCOC(=O)CNC(=O)CSc1cn(CC(=O)N2CCCCC2)c2ccccc12", "activity change, negative = inhibition": "inactive: 3.94%"}, {"smiles": "COc1ccc(S(=O)(=O)N(CCc2ccccc2)CC(=O)Nc2ccc(C)c(C)c2)cc1OC", "Potency": "inconclusive: 56.2 µM [inhibitor, partial curve, poor fit]"}, {"smiles": "CCn1cc(C(=O)N2CCN(c3cccc(C(F)(F)F)c3)CC2)c2cc(OC)c(OC)cc2c1=O", "activity change, negative = inhibition": "inactive: -40.3%"}, {"smiles": "COc1ccccc1-c1cc2nc(C)c(CCC(=O)Nc3ccc(Br)c(C)c3)c(C)n2n1", "Potency": "inconclusive: 2.82 µM [inhibitor, full curve, poor fit]"}, {"smiles": "CCc1ccc(OC(C)C(=O)N2CCC(c3nc4ccccc4s3)CC2)cc1", "note": "(centres undefined)", "Potency": "inconclusive: 39.8 µM [inhibitor, single point]"}, {"smiles": "Cc1ccc(CNC(=O)c2cc3c(s2)-c2ccccc2SC3)cc1", "activity change, negative = inhibition": "inactive: -18.5%"}, {"smiles": "CN(c1ncnc2onc(-c3cccc(Cl)c3)c12)C1CCCCC1", "Potency": "inconclusive: 50.1 µM [inhibitor, partial curve, poor fit]"}, {"smiles": "Cc1c(C(=O)N(Cc2ccccc2F)C2CCS(=O)(=O)C2)oc2ccc(F)cc12", "note": "(centres undefined)", "Potency": "inconclusive: 50.1 µM [inhibitor, partial curve, poor fit]"}, {"smiles": "Cc1nc2nc(N(Cc3cccc(C#N)c3)S(=O)(=O)c3ccccc3)nn2c(C)c1Cl", "Potency": "inconclusive: 3.55 µM [inhibitor, partial curve, poor fit]"}, {"smiles": "CCc1cccc(NC(=O)C2CCN(C(=O)c3cnn(-c4ccccc4)c3-n3cccc3)CC2)c1", "Potency": "inconclusive: 50.1 µM [inhibitor, partial curve, poor fit]"}, {"smiles": "Cc1ccc(Oc2nc(-c3ccncc3)nc3ccccc23)cc1", "Potency": "inconclusive: 50.1 µM [inhibitor, partial curve, poor fit]"}, {"smiles": "Cc1c(C(=O)OC(C)C#N)oc2c1ccc1ccccc12", "note": "(centres undefined)", "activity change, negative = inhibition": "inactive: 2.35%"}, {"smiles": "COC(=O)c1ccc(OCC2c3cc(OC)c(OC)cc3CCN2C(=O)COc2ccc(Cl)cc2)cc1", "note": "(centres undefined)", "Potency": "inconclusive: 44.7 µM [inhibitor, full curve, poor fit]"}]}]}
